At least one compound was matched to its structure with a doubt left.
Target: histone deacetylase (HeLa nuclear extracts)
Assay: In vitro assay for inhibition of histone deacetylase
Assay type: biochemical
Conditions: [3H]acetylated histone H4 peptide substrate
Protocol: The in vitro assay for inhibition of histone deacetylase (see example C.1) measures the inhibition of HDAC enzymatic activity obtained with the compounds of formula (I).
HeLa nuclear extracts (supplier: Biomol) were incubated at 60 μg/ml with 2×10^−8 M of radiolabeled peptide substrate. As a substrate for measuring HDAC activity a synthetic peptide, i.e. the amino acids 14–21 of histone H4, was used. The substrate is biotinylated at the NH2-terminal part with a 6-aminohexanoic acid spacer, and is protected at the COOH-terminal part by an amide group and specifically [^3H]acetylated at lysine 16. The substrate, biotin-(6-aminohexanoic)Gly-Ala-([^3H]-acetyl-Lys-Arg-His-Arg-Lys-Val-NH2), was added in a buffer containing 25 mM Hepes, 1 M sucrose, 0.1 mg/ml BSA and 0.01% Triton X-100 at pH 7.4. After 30 min the deacetylation reaction was terminated by the addition of HCl and acetic acid. (final concentration 0.035 mM and 3.8 mM respectively). After stopping the reaction, the free ^3H-acetate was extracted with ethylacetate. After mixing and centrifugation, the radioactivity in an aliquot of the upper (organic) phase was counted in a β-counter.
For each experiment, controls (containing HeLa nuclear extract and DMSO without compound), a blank incubation (containing DMSO but no HeLa nuclear extract or compound) and samples (containing compound dissolved in DMSO and HeLa nuclear extract) were run in parallel. In first instance, compounds were tested at a concentration of 10^−5M. […] In each test the blank value was substracted from both the control and the sample values. The control sample represented 100% of substrate deactylation. For each sample the radioactivity was expressed as a percentage of the mean value of the controls. […] Herein the effects of test compounds are expressed as pIC50 (the negative log value of the IC50-value).

Compound	Enzyme activity pIC50
O=C(NO)c1ccc(N2CCN(S(=O)(=O)c3ccc(Cl)s3)CC2)c([N+](=O)[O-])c1 [Compound 20]	>5
COc1ccc(S(=O)(=O)N2CCN(c3ccc(C(=O)NO)cc3[N+](=O)[O-])CC2)cc1 [Compound 57]	>5
O=C(NO)c1ccc(N2CCN(S(=O)(=O)c3ccc(Cl)cc3Cl)CC2)c([N+](=O)[O-])c1 [Compound 52]	>5
CN(C)c1cccc2c(S(=O)(=O)N3CCN(c4ccc(C(=O)NO)cc4[N+](=O)[O-])CC3)cccc12 [Compound 30]	>5
O=C(NO)c1ccc(N2CCN(S(=O)(=O)c3cccc(C(F)(F)F)c3)CC2)c([N+](=O)[O-])c1 [Compound 42]	>5
O=C(NO)c1ccc(N2CCN(S(=O)(=O)c3cccc4ccccc34)CC2)c([N+](=O)[O-])c1 [Compound 32]	5.835
O=C(NO)c1ccc(N2CCN(S(=O)(=O)c3ccc(I)cc3)CC2)c([N+](=O)[O-])c1 [Compound 26]	>5
O=C(NO)c1ccc(N2CCN(S(=O)(=O)c3cc(Cl)c(Cl)s3)CC2)c([N+](=O)[O-])c1 [Compound 55]	>5
O=C(NO)c1ccc(N2CCN(S(=O)(=O)c3ccc(F)cc3)CC2)c([N+](=O)[O-])c1 [Compound 56]	<5
COc1ccc(C)cc1S(=O)(=O)N1CCN(c2ccc(C(=O)NO)cc2[N+](=O)[O-])CC1 [Compound 37]	5.624
O=C(NO)c1ccc(N2CCN(S(=O)(=O)c3cc(Cl)sc3Cl)CC2)c([N+](=O)[O-])c1 [Compound 29]	>5
O=C(NO)c1ccc(N2CCN(S(=O)(=O)c3cccc4cccnc34)CC2)c([N+](=O)[O-])c1 [Compound 44]	>5
Cc1ccc(S(=O)(=O)N2CCN(c3ccc(C(=O)NO)cc3[N+](=O)[O-])CC2)cc1 [Compound 43]	>5
O=C(NO)c1ccc(N2CCN(S(=O)(=O)c3ccccc3C(F)(F)F)CC2)c([N+](=O)[O-])c1 [Compound 28]	5.265
O=C(NO)c1ccc(N2CCN(S(=O)(=O)c3ccccc3)CC2)c([N+](=O)[O-])c1 [Compound 58]	>5
O=C(NO)c1ccc(N2CCN(S(=O)(=O)c3cccc(Cl)c3)CC2)c([N+](=O)[O-])c1 [Compound 49]	>5
O=C(NO)c1ccc(N2CCN(S(=O)(=O)c3ccc4ccccc4c3)CC2)c([N+](=O)[O-])c1 [Compound 21]	6.38
O=C(NO)c1ccc(N2CCN(S(=O)(=O)c3ccccc3Cl)CC2)c([N+](=O)[O-])c1 [Compound 33]	>5

From patent US7205304B2, “Sulfonyl-Derivatives as novel inhibitors of histone deacetylase” (Janssen Pharmaceutica N.V., priority 2002, dated 2007)
